Here are results for 22 compounds from the supplement of paper PMC6135742.

Structures can show the parent of a compound that is named as a salt. ± gives the standard deviation of the averaged measurements. Over roughly 2,600 compounds, “total cell number (DAPI+ nuclei) relative to DMSO vehicle control” has its median near -1.4; the lowest 2% begin near -23. Some of the results follow.

In the assay the test system is jimpy (Plp1 jimpy) mouse iPSC-derived oligodendrocyte progenitor cells. The experiment in a line: total cell number (DAPI+ nuclei) relative to DMSO vehicle control (SDs above negative control mean); higher = more surviving cells. As to conditions: 10 µM; 3 days.
Compound `NCC(O)(CS(=O)(=O)O)c1ccc(Cl)cc1` (configuration not stated) [2-Hydroxysaclofen] yielded a total cell number of -0.987.
`CCOC(=O)c1ncn2c1CN(C)C(=O)c1cc(F)ccc1-2` [Flumazenil] had a total cell number of -0.805 ± 0.66.
With `O=NN(CCCl)C(=O)NCCCl` [Carmustine], the total cell number is -1.95.
With `CC1=C(C(=O)Nc2cc3cn[nH]c3cc2F)C(c2ccc(C(F)(F)F)cc2)CC(=O)N1` (configuration not stated), the total cell number is 3.97.
As to `CNC(=O)c1ccccc1Nc1nc(Nc2ccc(N3CCOCC3)cc2OC)ncc1Cl`, the total cell number is -12.2.
As for `Cc1cc(C)c2c(c1)[C@@H](N(Cc1cc(C(F)(F)F)cc(C(F)(F)F)c1)c1nnn(C)n1)CCCN2C[C@H]1CC[C@H](C(=O)O)CC1`, the total cell number amounted to 0.763.
Turning to `CCOC(=O)[C@H](CCc1ccccc1)N[C@H]1CCCN2CCC[C@@H](C(=O)O)N2C1=O` [Cilazapril Monohydrate], the total cell number was found to be 0.563.
In turn, `COc1cc(C(C)=O)ccc1OCCCN1CCC(c2noc3cc(F)ccc23)CC1` [Iloperidone] registered a total cell number of -2.6.
The compound `CCCC1O[C@@H]2C[C@H]3[C@@H]4CCC5=CC(=O)C=C[C@]5(C)[C@H]4[C@@H](O)C[C@]3(C)[C@]2(C(=O)CO)O1` (some centres not stated) [Budesonide] gave a total cell number of 10.6 ± 9.4.
In turn, `CCCCCCCCCCCCCCCCCCOCC(COP(=O)([O-])OCC[N+](C)(C)C)OC` (configuration not stated) returned a total cell number of -1.65.
The figure for `CN1[C@@H]2CC[C@H]1CC(OC(=O)c1c[nH]c3ccccc13)C2` (some centres not stated) [3-Tropanyl-indole-3-carboxylate hydrochloride] is -2.23.
The figure for `c1cc(-c2cnn3cc(-c4ccc(N5CCNCC5)cc4)cnc23)c2cccnc2c1` is -16.3; for `COC(=O)c1c(C)[nH]c(C)c1C(=O)c1ccccc1Cc1ccccc1` it is -1.51; for `CC1(C)S[C@@H]2[C@H](NC(=O)[C@H](C(=O)O)c3ccsc3)C(=O)N2[C@H]1C(=O)O` [Ticarcillin sodium] it is -1.02.
`O=C(c1ccc2c(c1)OCCO2)N1CCCCC1` registered a total cell number of -1.37.
Compound `Cc1cc(NS(=O)(=O)c2ccc(N)cc2)no1` [Sulfamethoxazole] had a total cell number of -2.51.
The figure for `O=C1CN(/N=C/c2ccc(-c3ccc([N+](=O)[O-])cc3)o2)C(=O)N1` [Dantrolene sodium] is -0.604; for `COc1cc(N2CCC(N)CC2)ccc1Nc1ncc(Cl)c(-c2c[nH]c3ccccc23)n1` it is -16.3.
Under `CC(C)[C@H]1c2ccc(F)cc2CC[C@@]1(CCN(C)CCCc1nc2ccccc2[nH]1)OC(=O)C1CC1` stands -11.4; under `COc1cc(O)c2c(c1)C(=O)c1cc(C)cc(O)c1C2=O` [Rheochrysidin], -1.42.
`CCOC(=O)n1ccn(C)c1=S` [Carbimazole] returned a total cell number of -1.51.
As for `O=c1cc2c(=O)oc3cc(O)c(O)oc3c2c(O)c1O` [Galloflavin potassium], the total cell number was -1.51.
